Results published in PubChem BioAssay AID1347071 (National Center for Advancing Translational Sciences (NCATS), 2019).
Screen size: about 410,000 compounds; about 260 (0.063%) were called active. This list was built around the results that the source calls inconclusive (neither active nor inactive); the mix of calls is not that of the screen. Calls follow the shape of the dose curve; as a rule, active = well fitted activation curve with a large enough effect; inconclusive = small, poorly fitted or top-dose-only effect; inactive = no such curve, though single readings can be large or run the other way. Potencies of inconclusive entries are left out as doubtful fits.

Assay: qHTS for compounds that reverse cellular toxicity of Amyloid beta (A-beta) peptide in yeast: Primary Screen; also: nearly all actives have a fitted effect of over 55% in size
Details: yeast expressing A-beta42, growth rescue, OD600, 48 h; growth rescue: at 46.1 µM (top of the series), 0% DMSO, 100% iron-clioquinol control
Outline: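 Yeast A-beta toxicity model in growth medium with pinned compounds, 48 h at 30 C; growth read as absorbance at 600 nm. Normalized to FeCl3/clioquinol equimolar mix (positive) and DMSO (negative).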
Potency is read from the fitted curve at half-maximal effect; tags tell the direction and shape of the fitted curve.

| Structure (SMILES) | Potency |
| --- | --- |
| O=S(=O)(c1ccc(F)c(F)c1)N1CCN(CCc2ccccc2)CC1 | inconclusive [activator, single point] |
| O=P(OC1CCCCC1)(OC1CCCCC1)C(O)c1ccccc1 (centres undefined) | inconclusive [activator, partial curve, poor fit] |
| O=c1c2cccnc2n(Cc2ccc(Cl)cc2)c(=O)n1Cc1ccc(F)cc1 | inactive |
| COc1ccc(Cn2c(CNS(=O)(=O)c3ccc(Cl)s3)nc3cccnc32)cc1 | inactive |
| CCCCN(CCCC)C(=S)N/N=C/c1c(C)[nH]n(-c2ccccc2)c1=O | inactive |
| COc1cccc(-c2nn(C)c3sc(C(=O)NCCCN(C)Cc4ccccc4)cc23)c1 | inconclusive [activator, single point] |
| Cc1ccc(C(C)C)c(OCc2n[nH]c(=S)o2)c1 | inconclusive [activator, partial curve] |
| S=C(Nc1ccccc1)Nc1ccc(Br)cn1 | inconclusive [activator, full curve] |
| O=C(NCCCc1ccccc1)c1cccc([N+](=O)[O-])c1 | inconclusive [activator, partial curve] |
| CCC(Cn1nnc2ccccc2c1=O)NC(=O)Nc1cc(OC)cc(OC)c1 (centres undefined) | inactive |
| CC(=O)N1CCc2cc(S(=O)(=O)CCC(=O)O)ccc21 | inactive |
| CCOc1cc(/C=N/NC(N)=O)cc(Br)c1OCc1ccccc1F | inconclusive [activator, partial curve] |
| S=C(Nc1ccc(Nc2ccccc2)cc1)NC1CCCCCC1 | inconclusive [activator, single point] |
| CCc1ccc2c(c1)NC(=O)C2(C)Cc1ccc(F)cc1 (centres undefined) | inconclusive [activator, partial curve, poor fit] |
| CCOC(=O)c1[nH]c2ccc(Br)cc2c1NC(=O)CCN1CCN(C(=O)OCC)CC1 | inconclusive [activator, partial curve, poor fit] |
| CC(=O)c1cccc(NC(=S)Nc2cccc3ccccc23)c1 | inconclusive [activator, single point] |
| Cc1cc(-c2csc3nc[nH]c(=S)c23)cc(C)c1C | inconclusive [activator, single point] |
| COc1ccc(NS(=O)(=O)c2cc(NC(=O)c3ccc(C)s3)ccc2N2CCOCC2)cc1 | inactive |
| COc1cccc(CC(=O)Nc2ccc3nc(Nc4cccc(C(F)(F)F)c4)cc(C)c3c2)c1 | inactive |
| O=C(CCCCl)NC(=S)Nc1ccc(N2CCOCC2)cc1 | inconclusive [activator, partial curve, poor fit] |
| O=C(CNC(=O)C1COc2ccccc2O1)N/N=C/c1cc(Br)c(O)c(Br)c1 (centres undefined) | inconclusive [activator, single point] |
| C=CCn1c(SCc2ccc(C(=O)O)cc2)nc2sc(C)c(C)c2c1=O | inconclusive [activator, single point] |

| Structure (SMILES) | Potency |
| --- | --- |
| O=C(CN(C(=O)CNS(=O)(=O)c1ccccc1)c1ccc2c(c1)OCCO2)NC1CCCCC1 | inconclusive [activator, single point] |
| c1ccc(-c2nc3ccccc3c3nncn23)cc1 | inactive |
| Cn1cc(-c2nnnn2-c2cccc(C(F)(F)F)c2)c(C(F)(F)F)n1 | inconclusive [activator, partial curve, poor fit] |
| Fc1ccc(NC(=S)NN=Cc2ccccc2Cl)cc1 | inconclusive [activator, partial curve, poor fit] |
| CCOC(=O)Cn1c(=NC(=O)CSC(C)=O)sc2cc(F)ccc21 | active: 6.31 µM |
| Cc1ccccc1C(=O)NC(=S)Nc1ccc(S(=O)(=O)N2CCN(C)CC2)cc1 | inactive |
| N#Cc1c(N2CCSCC2)nsc1-c1ccccc1Cl | inactive |
| CCOc1ccc(C(c2c(O)cc(C)n(Cc3ccco3)c2=O)N2CCN(c3ccccc3)CC2)cc1 (centres undefined) | inconclusive [activator, full curve, poor fit] |
| C=CCNC(=S)Nc1cc(C)ccn1 | inconclusive [activator, partial curve] |
| CCOC(=O)c1cnc(N2CCN(c3ccc(C)cc3C)CC2)c2ccccc12 | inactive |
| O=C(CN1CCN(S(=O)(=O)c2ccc(Cl)c(C(F)(F)F)c2)CC1)NC(=O)NC1CCCCC1 | inconclusive [activator, single point] |
| O/N=C(\c1ccc2c(c1)OCCO2)C1CCCCC1 | inconclusive [activator, full curve, poor fit] |
| COc1ccc(-c2ccc(CCC(=O)O)n2-c2cc(Cl)ccc2O)cc1 | inconclusive [activator, single point] |
| COc1cccc(NC(=S)NCc2ccc3c(c2)cc(C)n3C)c1 | inconclusive [activator, single point] |
| CN(C(=O)COC(=O)CCc1c[nH]c2ccccc12)c1ccccc1 | inconclusive [activator, full curve, poor fit] |
| O=C(Nc1ccccc1)O/N=C/c1ccc(F)cc1 | inactive |
| CCN(C(=O)Cc1ccc(Br)cc1)C1CCCCC1 | inconclusive [activator, partial curve, poor fit] |
| Cc1cccc(N2CCN(C3C(=O)Nc4ccccc4-n4nnnc43)CC2)c1C (centres undefined) | inconclusive [activator, single point] |
| CC(C)CCN1CCC[C@]2(N[C@H](c3ccc(C(F)(F)F)cc3)[C@@H]3C(=O)N(Cc4ccccc4)C(=O)[C@@H]32)C1=O | inconclusive [activator, single point] |
| COc1ccc(-c2nn(-c3ccccc3)cc2C(=O)Nc2nccs2)cc1 | inconclusive [activator, full curve, poor fit] |
| C=CC1C(N2CCOCC2)C(C)(C)S1(=O)=O (centres undefined) | inconclusive [activator, full curve] |
| COc1ccccc1CCNC(=O)c1csc2c1CCCC2 | inconclusive [activator, partial curve, poor fit] |
